These are yes or no findings as the source states them, for the method shown. For some assays here: In cells and extracts the contact can be indirect. Some binding calls cover weakened binding; strength is not graded here. For some assays here: Where a sequence is shown, tags or fusion partners need not be part of it.

Amino acid sequences for entries named in this document (tags omitted). A change or cut given only in a name is not applied to a line headed by its entry. Chains listed by the source or under a name are the forms on record and can include a tag or linker. Residues count along the entry.
UniProt Q99623: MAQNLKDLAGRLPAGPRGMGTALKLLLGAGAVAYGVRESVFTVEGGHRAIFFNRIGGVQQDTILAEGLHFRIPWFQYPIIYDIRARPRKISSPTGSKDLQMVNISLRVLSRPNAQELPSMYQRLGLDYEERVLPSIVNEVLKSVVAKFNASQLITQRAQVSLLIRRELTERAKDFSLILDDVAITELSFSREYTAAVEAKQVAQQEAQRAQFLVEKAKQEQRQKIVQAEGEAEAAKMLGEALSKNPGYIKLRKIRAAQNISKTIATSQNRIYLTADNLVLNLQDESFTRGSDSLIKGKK
MBP-tagged PHB2 N-terminal region (amino acids 1–152): residues 1-152 of Q99623
GFP-PHB2 fragment (150–206): residues 150-206 of Q99623
MBP-tagged PHB2 C-terminal region (amino acids 201–299): residues 201-299 of Q99623

In assay [1] the target is T1, RSU1 (Ras Suppressor 1), full-length, in pGBKT7 (yeast two-hybrid bait) (human) (UniProt Q15404).
T1 sequence: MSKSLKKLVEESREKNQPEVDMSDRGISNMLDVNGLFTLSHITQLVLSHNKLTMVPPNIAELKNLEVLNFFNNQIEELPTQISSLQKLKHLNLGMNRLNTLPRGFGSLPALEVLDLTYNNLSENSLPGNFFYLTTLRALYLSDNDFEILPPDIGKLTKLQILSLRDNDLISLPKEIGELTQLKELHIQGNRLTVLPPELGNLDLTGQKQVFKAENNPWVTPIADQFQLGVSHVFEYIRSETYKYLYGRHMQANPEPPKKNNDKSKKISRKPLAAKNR
The assay is described as follows: two-hybrid; yeast two-hybrid screen; pGBKT7/RSU1 as bait against a human keratinocyte … cDNA library.

Assay [2] concerns the target PHB2-Ruby2 (Ruby2-N1 vector carrying PHB2) (human) (UniProt Q99623). Briefly: FRET or BRET; TCSPC-FLIM of the Clover donor in fixed HT1080 cells adhered to fibronectin (10 μg/ml) for 5 h; control Ruby2 alone (lifetime of RSU1-Clover 2.226 ± 0.020 ns, n = 33). In general terms: In BRET a luciferase serves as donor, and the signal depends on an acceptor being close.
Assay [3] has as its target MBP-tagged PHB2 C-terminal region (amino acids 201–299) (human) (UniProt Q99623). Briefly: pull-down; GST-RSU1 (10 μg/ml) with amylose beads holding MBP-tagged full-length or deletion forms of PHB2 or MBP; 1% Triton X-100, 10 mM Tris, 100 mM NaH2PO4, pH 8.0; 4 °C, 3 h; Western blot with anti-RSU1; both purified. For orientation: In western blotting, separated proteins are transferred to a membrane and probed.

Assay [4] has as its target MBP-tagged PHB2 N-terminal region (amino acids 1–152) (human) (UniProt Q99623). The description is as above.
For assay [5], the target named is GFP-PHB2 fragment (150–206) (human) (UniProt Q99623). The assay is described as follows: co-IP; HT1080 cells transfected with GFP or GFP-PHB2 fragment (150–206) for 24 h; immunoprecipitation with anti-GFP antibodies; Western blot with anti-RSU1 and anti-GFP.
For assay [6], the target named is PHB2, endogenous in HT1080 cells (human (endogenous in HT1080)) (UniProt Q99623). The assay is described as follows: co-IP; endogenous proteins of HT1080 cells; lysis buffer 10 mM Tris/HCl pH 7.6, 500 mM NaCl, 1.75% n-octyl-β-D-glucopyranoside; agarose beads with anti-RSU1 or anti-PHB2 antibody, control IgG; also cells adhered to fibronectin (10 μg/ml) or kept in suspension for 5 h.

A further assay has as its target PHB2-Clover (human) (UniProt Q99623). The assay is described as follows: FRET or BRET; TCSPC-FLIM of the Clover donor in fixed HT1080 cells kept in suspension for 5 h; control Ruby2 alone (lifetime of RSU1-Clover 2.315 ± 0.019 ns, n = 44).
In assay [7] the target is GST–PHB2 fusion protein (human) (UniProt Q99623). Briefly: pull-down; GST-PHB2 or GST on glutathione-Sepharose 4B beads with precleared HeLa lysate (1% TX-100, 50 mM Hepes pH 7.1, 150 mM NaCl), 4 °C overnight; Western blot with anti-RSU1; only the target purified.

Turning to “PHB2 C-terminal fragment (residues 101–299), prey clone of the yeast two-hybrid library (from UniProt Q99623 101-299) (domain or fragment)”, the binding entry in assay [1] is given as “binds”.

B1: RSU1-Clover (mClover-N1 vector carrying RSU1) (protein, UniProt Q15404 1-277)
chain: MSKSLKKLVEESREKNQPEVDMSDRGISNMLDVNGLFTLSHITQLVLSHNKLTMVPPNIAELKNLEVLNFFNNQIEELPTQISSLQKLKHLNLGMNRLNTLPRGFGSLPALEVLDLTYNNLSENSLPGNFFYLTTLRALYLSDNDFEILPPDIGKLTKLQILSLRDNDLISLPKEIGELTQLKELHIQGNRLTVLPPELGNLDLTGQKQVFKAENNPWVTPIADQFQLGVSHVFEYIRSETYKYLYGRHMQANPEPPKKNNDKSKKISRKPLAAKNR
As to B1, the binding result in assay [2] is recorded as “binds weakly”.

B2: GST-tagged RSU1 (full length) (protein, UniProt Q15404 1-277)
chain: MSKSLKKLVEESREKNQPEVDMSDRGISNMLDVNGLFTLSHITQLVLSHNKLTMVPPNIAELKNLEVLNFFNNQIEELPTQISSLQKLKHLNLGMNRLNTLPRGFGSLPALEVLDLTYNNLSENSLPGNFFYLTTLRALYLSDNDFEILPPDIGKLTKLQILSLRDNDLISLPKEIGELTQLKELHIQGNRLTVLPPELGNLDLTGQKQVFKAENNPWVTPIADQFQLGVSHVFEYIRSETYKYLYGRHMQANPEPPKKNNDKSKKISRKPLAAKNR
With B2, the binding entry in assay [3] and in assay [4] was “no binding (tested: 10 μg/ml)” each time.

B3: RSU1, endogenous in HT1080 cells (protein, UniProt Q15404 1-277)
chain: MSKSLKKLVEESREKNQPEVDMSDRGISNMLDVNGLFTLSHITQLVLSHNKLTMVPPNIAELKNLEVLNFFNNQIEELPTQISSLQKLKHLNLGMNRLNTLPRGFGSLPALEVLDLTYNNLSENSLPGNFFYLTTLRALYLSDNDFEILPPDIGKLTKLQILSLRDNDLISLPKEIGELTQLKELHIQGNRLTVLPPELGNLDLTGQKQVFKAENNPWVTPIADQFQLGVSHVFEYIRSETYKYLYGRHMQANPEPPKKNNDKSKKISRKPLAAKNR
For B3, the binding entry in assay [5] and in assay [6] was “binds” throughout.

B4: RSU1-Ruby2 (protein, UniProt Q15404 1-277)
chain: MSKSLKKLVEESREKNQPEVDMSDRGISNMLDVNGLFTLSHITQLVLSHNKLTMVPPNIAELKNLEVLNFFNNQIEELPTQISSLQKLKHLNLGMNRLNTLPRGFGSLPALEVLDLTYNNLSENSLPGNFFYLTTLRALYLSDNDFEILPPDIGKLTKLQILSLRDNDLISLPKEIGELTQLKELHIQGNRLTVLPPELGNLDLTGQKQVFKAENNPWVTPIADQFQLGVSHVFEYIRSETYKYLYGRHMQANPEPPKKNNDKSKKISRKPLAAKNR
As to B4, in the assay with PHB2-Clover (human), the binding entry was “binds”.

B5: RSU1, endogenous in HeLa cells (protein, UniProt Q15404 1-277)
chain: MSKSLKKLVEESREKNQPEVDMSDRGISNMLDVNGLFTLSHITQLVLSHNKLTMVPPNIAELKNLEVLNFFNNQIEELPTQISSLQKLKHLNLGMNRLNTLPRGFGSLPALEVLDLTYNNLSENSLPGNFFYLTTLRALYLSDNDFEILPPDIGKLTKLQILSLRDNDLISLPKEIGELTQLKELHIQGNRLTVLPPELGNLDLTGQKQVFKAENNPWVTPIADQFQLGVSHVFEYIRSETYKYLYGRHMQANPEPPKKNNDKSKKISRKPLAAKNR
For B5, the binding result in assay [7] is recorded as “binds”.

The values are drawn from article PMC7948471, “RSU-1 interaction with prohibitin-2 links cell–extracellular matrix detachment to downregulation of ERK signaling” (The Journal of Biological Chemistry, 2020).
